# The supplement of paper PMC3334620
# In all, about 33,000 sequences were measured (“E-score (-0.5 to 0.5)”: median about -0.04, highest 2% from about 0.36 on). The list shows a part of the results.
# Target: T1, Hmlalpha2 (UniProt P0CY09)
# T1 sequence: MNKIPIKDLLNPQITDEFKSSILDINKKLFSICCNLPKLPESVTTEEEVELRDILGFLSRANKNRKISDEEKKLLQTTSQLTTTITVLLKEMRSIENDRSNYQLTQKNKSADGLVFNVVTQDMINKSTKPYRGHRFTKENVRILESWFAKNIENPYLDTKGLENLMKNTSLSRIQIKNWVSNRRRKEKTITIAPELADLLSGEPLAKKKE
# Test: PBM E-score (8-mer binding enrichment) (E-score (-0.5 to 0.5)); higher = stronger / more preferred TF binding; most listed sequences are background and not binding sites
# Settings: protein concentration: 200 nM; construct: GST-full length
# In short: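 PURExpress in vitro transcription/translation supplied GST-tagged yeast transcription factors, either full-length or DNA-binding domain. Applied at about 100-200 nM to universal all-10-mer Agilent arrays double-stranded by primer extension, the bound protein was detected with fluorescent anti-GST. E-scores, modified Wilcoxon-Mann-Whitney statistics, were given by the Universal PBM Analysis Suite to ungapped eight-base words pooled with their reverse complements after masliner normalisation.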
row,Sequence,PBM E-score
1,ACTGCCTA,0.0425
2,CCACCTCG,-0.216
3,CGATAGCC,-0.128
4,CACGACGG,0.192
5,CCGAAAGG,-0.206
6,ACATCCAG,0.192
7,AGGTGAAT,0.118
8,ATTGAACG,0.218
9,ATCGTTGC,0.0181
10,CTGGTAAA,0.143
11,GCTATCCC,-0.207
12,ACGCTTTG,-0.0226
13,AGGACCAG,-0.158
14,ATCACGAG,-0.0914
15,AAGCAAAT,0.203
16,CAGCCTAG,-0.165
17,AGCGTAAG,-0.106
18,AGCCGCCT,-0.297
19,GGCACAGA,-0.245
20,CGCGGACG,-0.145
21,ACTCTGAT,-0.0492
22,ACTGGCGC,-0.0623
23,CCCTTCTA,-0.0409
24,GCAGCGAC,-0.107
25,GGTTGCCA,-0.0907

row,Sequence,PBM E-score
1,AGCCCCCG,-0.374
2,CGCCAACG,-0.0698
3,ACAAGATA,0.289
4,GGACGGAA,-0.171
5,CATGTCGC,0.256
6,ACGTCCCA,-0.135
7,AGCTAGGC,-0.196
8,AGGGTAGA,-0.285
9,ACTGCGAA,-0.0362
10,GGTACGGA,-0.0963
11,CTAAGCGA,-0.278
12,ATGACTAC,0.0237
13,GCGCAGCA,-0.181
14,GCTCCTAC,-0.0505
15,CCAGTAAG,-0.035
16,ATCAAAAG,-0.154
17,AAGACGCC,-0.157
18,CTAATATA,0.223
19,AGGCCAGG,-0.218
20,CCTCAAAA,-0.0993
21,GCTTTACC,0.21
22,CTGTCAAG,-0.124
23,GGAACCCC,-0.373
24,CTGACAAG,0.133
25,GGCCTACC,-0.247

row,Sequence,PBM E-score
1,GCCGTGCA,0.0721
2,TAACTGGA,-0.103
3,AACTTTTA,0.225
4,CCTCGTAC,-0.0632
5,CCTAGGTC,-0.382
6,ATGAGTAC,0.155
7,ATTGCCCC,-0.315
8,CCAGGCCC,-0.187
9,CCTACTAC,-0.0206
10,ACATCACA,0.237
11,GCCGATTA,0.0665
12,GCGTCAGA,0.00147
13,AACTACTA,0.185
14,CAGAGTGG,-0.17
15,AGAAACAG,-0.0268
16,ACGTAGTG,0.156
17,AAAGTAGT,0.149
18,CATTAGGG,-0.217
19,GATTACCA,0.087
20,AGACGCCT,-0.0767
21,TCAATCGA,0.0055
22,ATCCCAAA,-0.262
23,GTATCGCA,-0.0382
24,GAATCACC,-0.0134
25,CGGGACCG,-0.268

row,Sequence,PBM E-score
1,AGTGTCAA,0.134
2,ACTAGACT,-0.186
3,ACAAAGTC,0.0424
4,ACGGTGCC,-0.0717
5,CAGATATC,0.00794
6,AGTGAAAA,0.0735
7,CCGCTGAC,-0.146
8,CCCGCACG,-0.229
9,ACCTAGGT,-0.102
10,CAGGTTTA,-0.046
11,TAAGACGA,-0.0827
12,ATGAGAAA,0.0401
13,AGCGATGA,-0.0359
14,AATAAGCC,-0.212
15,CGCAGTTA,0.0795
16,ACTGGTCT,-0.147
17,ATGAGCAT,0.125
18,CCGCCTGA,-0.247
19,AACCGACC,-0.111
20,CAACGCAG,0.1
21,ATGCTGAG,-0.193
22,GAATAACC,-0.0464
23,GCGCACCC,-0.16
24,GCCTGAAA,-0.011
25,ACACACGG,0.277

row,Sequence,PBM E-score
1,CGTCGGAG,0.039
2,GGGCGCCC,-0.262
3,ATAAACCG,-0.0464
4,CACGTCTC,-0.014
5,CTAATGCA,0.0875
6,GCCTCGTA,0.202
7,GAACGTGA,0.0247
8,ACAGACGC,0.086
9,ACCCTTTC,0.11
10,GTAGCCGA,-0.0475
11,CACCTGCA,-0.237
12,GACGCTCC,-0.304
13,CATGCTAA,0.298
14,GCAGTCCA,-0.0643
15,ATTGTGGG,-0.145
16,AGCGCGAT,0.0252
17,TGGCACCA,-0.128
18,CTTATCGC,-0.216
19,GACCGCAC,-0.227
20,ACGGTTCC,-0.192
21,AGACGTTC,-0.00208
22,ATGCGCCA,-0.0251
23,GTCAAGAC,-0.135
24,CCAAACCG,-0.281
25,ACCTAAAG,-0.0573

row,Sequence,PBM E-score
1,GCTCCGAC,-0.0741
2,ATCTGGGC,-0.311
3,ATTCTGCA,-0.0444
4,ATCGACTA,-0.0703
5,TATCAGCA,-0.0185
6,TAACGGGA,-0.0973
7,ACCCAAGG,-0.14
8,CAAGATGA,-0.0169
9,ACGGAACT,-0.0556
10,ATCGAAAT,-0.0865
11,CTGTAATC,0.243
12,AGAGATCA,-0.177
13,CAAGTTCG,-0.027
14,ACTCCGTA,-0.223
15,AGACCAGC,-0.307
16,CAAGATAA,0.177
17,ATAATGGG,-0.0208
18,ATATGTAA,0.416
19,CGGACGAC,-0.0451
20,AACCGCCG,-0.113
21,AACAGGAC,0.202
22,AGACAATG,0.0695
23,AGGGACCC,-0.33
24,GAGCTACA,0.0237
25,CATATATA,0.231

row,Sequence,PBM E-score
1,CGCCGTTC,-0.118
2,ACGATCGG,-0.135
3,CCTGAGAC,-0.148
4,TCCTTTCA,-0.0612
5,AGTAAAGC,0.139
6,AAGAAAGT,-0.0831
7,AGGTGTCC,-0.111
8,ACTCACGC,0.0398
9,GGTCATCA,-0.155
10,ACTCTATA,-0.00313
11,CATCGTAA,0.263
12,GTGCAATA,0.0994
13,AAATGCGC,0.171
14,GATAATGA,-0.091
15,GACCCATA,-0.143
16,AACCGTTA,0.0791
17,CATTGCTA,0.0515
18,CCTCTTAA,-0.022
19,CCACTACA,0.212
20,CAACCAAA,0.00973
21,AGGGAGAA,-0.17
22,AACTCTAC,0.0855
